Publication PMC4336329 (PLoS ONE, 2015)
About 14,000 (4.5%) of roughly 310,000 compounds showed an effect of 50% or more. Effects have a minus sign here. The list shows a part of the results.

The compounds below were run against human ether-à-go-go-related gene (hERG) potassium channel (human, UniProt Q12809) (assay: primary screen, population patch clamp on CHO cells stably expressing hERG).
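Note: peak tail current of the secondary pulse compared with the same well before compound.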

human ether-à-go-go-related gene (hERG) potassium channel, sequence (Q12809 whole entry, looked up): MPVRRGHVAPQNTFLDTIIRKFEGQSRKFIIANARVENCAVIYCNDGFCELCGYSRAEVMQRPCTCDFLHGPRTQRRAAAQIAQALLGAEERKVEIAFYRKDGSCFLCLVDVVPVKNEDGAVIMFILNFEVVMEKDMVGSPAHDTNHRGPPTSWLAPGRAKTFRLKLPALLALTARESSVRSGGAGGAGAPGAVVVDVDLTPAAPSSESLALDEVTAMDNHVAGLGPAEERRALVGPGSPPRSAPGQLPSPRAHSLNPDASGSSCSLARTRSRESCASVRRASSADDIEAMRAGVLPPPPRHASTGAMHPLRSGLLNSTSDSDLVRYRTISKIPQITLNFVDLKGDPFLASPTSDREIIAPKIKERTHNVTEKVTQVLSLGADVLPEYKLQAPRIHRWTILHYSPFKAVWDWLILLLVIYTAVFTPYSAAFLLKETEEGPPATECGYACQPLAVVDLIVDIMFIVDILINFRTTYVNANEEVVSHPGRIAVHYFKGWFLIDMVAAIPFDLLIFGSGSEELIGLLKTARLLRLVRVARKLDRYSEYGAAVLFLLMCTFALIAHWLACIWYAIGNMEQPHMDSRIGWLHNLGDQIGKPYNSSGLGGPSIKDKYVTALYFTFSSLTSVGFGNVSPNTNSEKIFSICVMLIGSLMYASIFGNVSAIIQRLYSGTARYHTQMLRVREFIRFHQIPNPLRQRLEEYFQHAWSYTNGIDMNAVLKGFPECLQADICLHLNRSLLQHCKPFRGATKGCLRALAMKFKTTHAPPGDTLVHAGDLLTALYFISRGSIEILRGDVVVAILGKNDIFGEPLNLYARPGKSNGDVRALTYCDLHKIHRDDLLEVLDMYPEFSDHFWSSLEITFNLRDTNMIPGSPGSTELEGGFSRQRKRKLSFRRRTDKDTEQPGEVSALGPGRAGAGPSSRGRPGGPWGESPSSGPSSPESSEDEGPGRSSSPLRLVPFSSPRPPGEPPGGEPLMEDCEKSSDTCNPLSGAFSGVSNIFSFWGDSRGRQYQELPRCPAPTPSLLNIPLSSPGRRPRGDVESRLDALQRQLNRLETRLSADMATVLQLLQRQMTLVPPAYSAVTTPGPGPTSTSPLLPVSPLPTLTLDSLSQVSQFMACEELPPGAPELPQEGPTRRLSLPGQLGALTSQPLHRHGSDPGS

Row | Compound | hERG current change (%, negative = inhibition) at 10uM
1 | CC1CCN(C(=O)c2[nH]cnc2C(=O)N[C@@H](C)C(=O)OCc2ccccc2)CC1 | 5.28%
2 | Nc1ccc(N2CCCCC2)c(S(=O)(=O)Nc2ccccc2Cl)c1 | -17.5%
3 | CCOc1ccc(NC(=O)c2ccccc2NC(=O)c2cccnc2)cc1 | 7.52%
4 | CN(C)S(=O)(=O)Oc1ccsc1C(=O)Nc1ccccc1Cl | -17%
5 | O=C(NCCN1CCOCC1)c1cc(-c2cccs2)nc2ccccc12 | -13.1%
6 | CCC1CCCCN1CCCNC(=O)Cn1nc(-c2ccc(C)cc2)ccc1=O (stereo not shown) | -11.5%
7 | CSc1ccc(CN2CCN(Cc3ccc([N+](=O)[O-])cc3)CC2)cc1.O=C(O)C(=O)O | -78.1%
8 | COc1ccc2[nH]cc(C(=O)CN3CCC(C)CC3)c2c1 | -5.75%
9 | CCOc1c(Br)cc(C(N)=O)cc1OC | 17.1%
10 | COC(=O)c1cc(C#N)c(N2CC(C)OC(C)C2)nc1C (stereo not shown) | 11.1%
11 | CC(C)c1cc(N2CCN(C(=O)c3ccco3)CC2)n2c(nc3ccccc32)c1C#N | -34.1%
12 | O=C(Nc1ccc(N2CCOCC2)cc1)Nc1ccc2nsnc2c1 | 22.3%
13 | O=C(Nc1ccccc1)/C(=C\c1ccncc1)NC(=O)c1ccccc1 | -13.5%
14 | CCCNC(=O)CN1C(=O)NC(CCSC)C1=O (stereo not shown) | 17.4%
15 | C=CCn1c(N)nc2ccccc21.Cl | 14.7%
16 | CCOc1ccccc1C(=O)Nc1nnc(SCC(=O)Nc2cc(C)on2)s1 | 11.6%
17 | CCn1c(=S)sc2c(=O)n(-c3ccccc3)c(SCC(=O)NCc3ccco3)nc21 | -33.6%
18 | COc1ccc(OC)c(C2C(C(=O)N(C)C)=C(C)Nc3nc4ccccc4n32)c1 (stereo not shown) | -5.5%
19 | COc1ccc(Cl)cc1NC(=S)Nc1cccc(C)c1 | 10.3%
20 | O=C(CNC(=O)c1ccccc1Cl)NCC(c1cccs1)N1CCOCC1 (stereo not shown) | 6.95%
21 | Cc1cc(C)c(C(CC(=O)c2cccs2)C(C#N)C#N)c(C)c1 (stereo not shown) | -23.9%
22 | COc1cccc2cc(C(=O)NCCc3c[nH]c4ccccc34)c(=O)oc12 | 6.45%

Row | Compound | hERG current change (%, negative = inhibition) at 10uM
23 | CCOCCCN(C(=O)CNC(=O)c1ccco1)C(C(=O)NC1CCCC1)c1cccc(OC)c1 (stereo not shown) | 7.5%
24 | CSc1ccc(C(=O)NCC(=O)O)cc1[N+](=O)[O-] | -2.41%
25 | CCc1nnc(NC(=O)c2ccc3ncsc3c2)s1 | 17.4%
26 | CN1CCN(C(=O)/C(=C/c2ccccc2F)NC(=O)c2ccccc2)CC1 | -29.2%
27 | COCCNC(=O)Cn1cc(/C=C(\C#N)C(=O)NC2CC2)c2ccccc21 | 10.6%
28 | O=C1CCN(CCc2ccccc2)CCN1CCOc1ccccc1 | -72.8%
29 | O=C(N/N=C/c1ccccc1OCc1ccccc1Cl)c1cccnc1 | -16.5%
30 | CCS(=O)(=O)NCCc1csc(-c2cccnc2)n1 | 25.5%
31 | Nc1ccc(C(=O)c2cccs2)cc1 | 2.8%
32 | Cc1cc(=O)[nH]c(SC(C(=O)O)c2ccccc2)n1 (stereo not shown) | -2.87%
33 | COc1ccc2c(c1)CC[C@@H]1[C@@H]2CC[C@]2(C)[C@@H](C(=O)O)C[C@@H]12 | 6.23%
34 | Cc1ccccc1CN1CCN(CC(=O)NCc2ccc3c(c2)OCO3)C1=O | -7.29%
35 | Cc1cc(C(=O)Cn2nc(C(=O)O)c3ccccc3c2=O)c(C)n1-c1ccccc1 | 4.33%
36 | CCOC(=O)Cc1csc(NC(=O)CCCC(=O)O)n1 | 20.2%
37 | C=CCN1C(=O)C(C)(C)N(C(C)=O)c2ccccc21 | -15%
38 | Cl.c1ccc(C2CSc3ccccc3N2)cc1 (stereo not shown) | 15.5%
39 | CCOc1ccccc1N1CCN(C(=O)CC(C)(C)C)CC1 | 0.665%
40 | CCCSc1nc2sc3c(c2c(=O)[nH]1)CC(C)(CC)OC3 (stereo not shown) | 27.7%
41 | COc1ccc(NC(=O)N/C=C/c2ccc(Cl)cc2)cc1 | 7.59%
42 | COC(=O)CCC(=O)OC1(C)C(=O)C=C2C=C(C3CC3)N(CCCOC(C)C)C=C2C1=O (stereo not shown) | 7.84%
43 | CC1CCCN(CCCNC(=O)c2ccc(N3CCCC3=O)cc2)C1 (stereo not shown) | 14.1%
44 | CCOc1ccccc1N1CCN(CC(=O)Nc2nc(C)c(C(=O)N(C)C)s2)CC1 | -3.21%

Row | Compound | hERG current change (%, negative = inhibition) at 10uM
45 | O=C1Nc2ccccc2C1=Nc1ccc(F)cc1 | 9.92%
46 | CCOC(=O)N1CCN(C(=O)c2ccc3nc4ccc(Cl)cc4c(=O)n3c2)CC1 | -45.9%
47 | NC(=O)CC(NC(=O)Cc1ccc(Br)cc1)c1ccc(NC2CCN(Cc3ccccc3)CC2)c([N+](=O)[O-])c1 (stereo not shown) | -45.8%
48 | CCN(c1ccccc1)S(=O)(=O)c1ccc(Cl)nc1 | -2.63%
49 | Nc1ccc2nc(CCCCCCCCc3nc4ccc(N)cc4[nH]3)[nH]c2c1 | 10.8%
50 | COc1cc(C(=O)N/N=C/c2sc(N3CCOCC3)nc2-c2ccccc2)cc(OC)c1OC | 3.33%
51 | COc1ccc(N(C)S(=O)(=O)c2cccc(C(=O)Nc3ccc(OC)nc3)c2)cc1 | -4.1%
52 | CCN(CC)S(=O)(=O)c1ccc(NC2c3ccccc3C(=O)N2c2ccc(C)cn2)cc1 (stereo not shown) | 15%
53 | CCOC(=O)CN1C(=O)S/C(=C/c2cc(C)n(-c3ccccn3)c2C)C1=O | -8.1%
54 | O=C(NCc1ccccc1Cl)C1CCC(CNc2c(N3CCCCC3)c(=O)c2=O)CC1 (stereo not shown) | 14.6%
55 | CN1CCN(c2nc3c(c(=O)n(C)c(=O)n3C)n2CCSc2nnnn2-c2ccccc2)CC1 | 0.637%
56 | COc1ccc(OC)c(Nc2nc(NCCO)c3ccccc3n2)c1.Cl | -44.4%
57 | CCN=C1SC(CC(=O)Nc2ccccc2OCC)C(=O)N1CC (stereo not shown) | -8.98%
58 | COc1ccc2[nH]c(=O)c(CN(C(=O)c3cccnc3)c3cc(C)ccc3C)cc2c1 | -0.807%
59 | Cc1ccc2c(N)c(C(=O)N(c3ccccc3)c3ccccc3)sc2n1 | 33.7%
60 | O=C(NNC(=O)c1ccccc1-n1cccc1)c1ccc(F)cc1 | 18.2%
61 | O=C1CCC/C(=N\NC(=O)NC2CCCCC2)C1 | -13.4%
62 | O=C(c1c[nH]c2ccccc12)N1CCOCC1 | 8.48%
63 | CCc1cc2cc(C)ccc2nc1SCC(=O)NNC(=O)c1ccco1 | 21.9%
64 | COc1ccccc1NC(=O)COC(=O)/C=C/c1ccccc1[N+](=O)[O-] | 4.7%
65 | Cc1c(NC(=O)c2cc(-c3ccco3)on2)c(=O)n(-c2ccccc2)n1C | 14.5%
66 | CC1CCc2c(sc(NC(=O)C3c4ccccc4Oc4ccccc43)c2C(N)=O)C1 (stereo not shown) | 2.73%

Row | Compound | hERG current change (%, negative = inhibition) at 10uM
67 | CC(=O)c1c(C)[nH]c(-c2ccccc2)c1C | 1.07%
68 | CC(OC(=O)CC1CCCCC1)C(=O)Nc1ccc(S(N)(=O)=O)cc1 (stereo not shown) | -11.6%
69 | O=C(CNC(=O)c1cnccn1)Nc1ccc(F)c(F)c1F | 20.8%
70 | N#CC1(NC(=O)CSc2nnc(COc3ccccc3F)n2N)CCCCC1 | -0.0615%
71 | Cc1ccc(CNC(=O)COC(=O)[C@@H]2CC(O)CN2S(=O)(=O)c2ccc3c(c2)OCCO3)cc1 (stereo partly shown) | -16.8%
72 | CCCCn1c(N)c(N(CC)C(=O)CSCC(=O)Nc2ccc(OC)cc2)c(=O)[nH]c1=O | 21.6%
73 | C[C@H](NC(=O)c1cc2c([nH]c3ccccc32)c(-c2ccccc2)n1)C(=O)O | 11.8%
74 | O=C(CNc1ccccc1Cl)c1ccc(Br)cc1 | -5.38%
75 | O=C(c1ccc2c(c1)OCCO2)C1CCN(S(=O)(=O)c2ccc(F)cc2)CC1 | -29.5%
76 | CN(C(=O)c1cncc(Br)c1)c1c(N)n(Cc2ccccc2)c(=O)[nH]c1=O | 5.77%
77 | CN1CC(C(=O)O)Cc2c1ccc1ccccc21 (stereo not shown) | 13.9%
78 | Cn1c(C(=O)OC(C(=O)NC2CCCCC2)c2ccncc2)cc2sccc21 (stereo not shown) | -0.943%
79 | CCC(=O)NC(NC(=S)Nc1c(C)n(C)n(-c2ccccc2)c1=O)C(Cl)(Cl)Cl (stereo not shown) | 6.42%
80 | COc1cccc(N2CCN(C(=O)C3CCCN(c4ncnc5c4nc4n5CCCCC4)C3)CC2)c1 (stereo not shown) | -81.7%
81 | Cc1ccc(NCC(=O)N=Nc2c(O)n(C)c3ccccc23)cc1 | -15.6%
82 | Cc1ccc(-n2c(C)nc3c(cnn3-c3ccc(F)cc3)c2=O)cc1 | 7.66%
83 | Cc1cccc(NC(=O)NC2(C(=O)NCc3ccco3)CCCCC2)c1 | -33.8%
84 | O=C(Cc1sc(Nc2ccccc2)nc1-c1ccccc1)NCc1ccccc1 | 25.6%
85 | COc1cccc(C(=O)N(c2ccc(OC)cc2OC)C2C=CS(=O)(=O)C2)c1 (stereo not shown) | -0.147%
86 | CCc1nnc(NC(=O)COc2ccccc2[N+](=O)[O-])s1 | -0.186%
87 | COc1ccccc1CNC(=O)CSc1nc(-c2ccccc2)cn1N | -3.43%
88 | Cn1c(SCc2ccc(F)cc2)nnc1-c1cccs1 | -15.5%
